# Laboratory results taken from PubChem BioAssay AID1240 (Sanford-Burnham Center for Chemical Genomics, 2008).
# Hit rate of the full screen: of about 50,000 compounds, about 800 (1.6%) showed an effect of 50% or more. This is one part of the list.
# Target: Bcl-2-like protein 10 (Homo sapiens) (UniProt Q9HD36)
# Test: TR3 peptide-Bcl-B binding displacers, biochemical primary FP assay, phenotype converters (AID 1240);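 also: 0% = Bcl-B with tracer peptide and DMSO and 100% = tracer peptide lacking Bcl-B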
# Conditions: GST-Bcl-B / FITC-TR3 peptide fluorescence polarization; stronger effect = higher value; compound at 3.75 mg/L
# UniProt Q9HD36, sequence (Q9HD36 whole entry, looked up): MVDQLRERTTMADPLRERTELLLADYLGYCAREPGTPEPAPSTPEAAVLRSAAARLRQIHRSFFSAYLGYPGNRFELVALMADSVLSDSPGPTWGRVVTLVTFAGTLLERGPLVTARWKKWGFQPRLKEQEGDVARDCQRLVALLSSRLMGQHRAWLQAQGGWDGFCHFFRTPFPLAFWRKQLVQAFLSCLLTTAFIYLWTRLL
row,Structure (SMILES),displacement [%]
1,CC1(C)CC(=O)C2=C(C1)Nc1ccc3ccccc3c1C2c1ccccc1F (stereo unspecified),-12
2,COc1cc2c(cc1OC)C(c1ccc(O)cc1)N(C1CC(=O)N(c3ccccc3)C1=O)CC2 (stereo unspecified),-5.3
3,CC(C)N1CCC(=NNC(=O)C(O)c2ccccc2)CC1 (stereo unspecified),-4
4,COc1ccc(C2=C/C(=C/c3ccc(OC)c(Br)c3)C(=O)O2)cc1,11
5,COc1ccc(N(CC(=O)Nc2cccc(C(F)(F)F)c2)S(C)(=O)=O)c(OC)c1,9.8
6,O=C(O)c1cccc(NC(=O)c2cccc(N3C(=O)c4ccc(C(=O)Nc5cccc(C(=O)O)c5)cc4C3=O)c2)c1,-0.9
7,O=c1cc(C(F)(F)F)c2ccc(OCc3ccc([N+](=O)[O-])cc3)cc2o1,3.4
8,O=C(c1ccc(Cl)cc1)N(Cc1ccccc1)c1cccc([N+](=O)[O-])c1,7.2
9,C(=N\Nc1nc(N2CCOCC2)nc(N2CCOCC2)n1)/c1ccc2ccccc2c1,1.3
10,CN1CCN(Cn2c(O)c(N=NC(=O)c3ccccc3Br)c3ccccc32)CC1,0.3
11,Nc1ccc2nc(SCc3ccc(F)cc3)sc2c1,2.7
12,CC(=O)Nc1ccccc1NC(=O)c1ccc(C)c([N+](=O)[O-])c1,0.9
13,O=C(NCc1cccnc1)c1nn2c(C(F)(F)F)cc(-c3cccs3)nc2c1Cl,-5.6
14,COc1cc(/C=C2\SC(=S)N(C)C2=O)ccc1OC(=O)c1cccc(C)c1,6.9
15,COc1ccc([N+](=O)[O-])cc1N=Cc1c[nH]c2ccccc12,3.9
16,O=C(/C=C/c1ccccc1Cl)Nc1ccccc1[N+](=O)[O-],12.3
17,CC(=O)c1cccc(NC(=O)Nc2ccc(C)cc2)c1,-4
18,COc1cccc(/C=C2/SC(=S)N(CCC(=O)Nc3nnc(C)s3)C2=O)c1,12.8
19,CCOC(=O)NC(O)C(=O)c1cccs1 (stereo unspecified),10.8
20,COc1ccccc1/C=C1/SC(=S)N(Cc2ccccc2)C1=O,16.7
21,N/C(=N\OC(=O)c1cccc(F)c1)c1ccc(Br)cc1,6.9
22,O=S(=O)(NCC(c1ccccc1)N1CCNCC1)c1ccccc1 (stereo unspecified),2.6
23,Oc1c(Br)cc(Br)cc1/C=N/c1ncn[nH]1,-6
24,Cc1ccc(N2CC(C(=O)Nc3ccccc3C(C)C)CC2=O)cc1 (stereo unspecified),-1.4

row,Structure (SMILES),displacement [%]
1,CSc1sc(I)cc1/C=N/NC(=O)c1nnn(-c2nonc2N)c1C,-1.2
2,O=C(N/N=C\c1ccccc1)c1cncc(Br)c1,4.8
3,CCCCn1c2ccccc2c2cc(CC(N)=O)ccc21,-0.4
4,O=C(Sc1nc2ccccc2[nH]1)c1ccccc1,9.2
5,CCOC(=O)c1cccc(NC(=O)c2ccc(OC)c(OC)c2)c1,-1.9
6,Cc1c(Cl)cccc1N=Cc1ccc[nH]1,11.3
7,N/C(=N/N=C\c1cc(Br)ccc1O)c1ccccn1,3.7
8,CCOC(=O)C1=C(c2ccccc2)N=C2SCC(=O)N2C1c1ccccc1 (stereo unspecified),-26.1
9,COc1ccc(NC(=O)C2=C(C)NC(=S)NC2c2ccc(Br)cc2)cc1 (stereo unspecified),-9
10,O=C(CSc1nsc(SCC(=O)Nc2ccccc2F)n1)Nc1ccccc1F,13.6
11,O=C(Nc1ccc(Cl)cc1)NC1CC1,-1.5
12,O=C(N/N=C/c1ccc(-c2ccccc2[N+](=O)[O-])o1)c1ccc([N+](=O)[O-])cc1,12.9
13,COc1ccc(N=C(C)c2cc(Cl)ccc2O)cc1,17.3
14,Cc1cc(Cl)ccc1OCC(=O)Nc1cccc(-c2nc3ncccc3o2)c1,21.4
15,CCCS(=O)(=O)c1c(S(=O)(=O)CCC)c2c3ccccc3ccn2c1C(N)=O,-2.3
16,O=C(CN1CCCCC1)OCC1CCCO1 (stereo unspecified),-0.7
17,CCOc1ccccc1NC(=O)CCc1ccccc1,-1.2
18,CCOc1ccc(N(CC(=O)N2CCCC2)S(=O)(=O)c2ccc(Cl)cc2)cc1,19.2
19,Cc1ccc(C(=O)Nc2ccccc2Br)cc1,0.1
20,COC(=O)C1=C(C)NC2=C(C(=O)CC(c3ccc4c(c3)OCO4)C2)C1c1ccc(Br)cc1 (stereo unspecified),-21.9
21,Cc1ccc(S(=O)(=O)N(CCO)CC(O)Cn2c3ccc(Cl)cc3c3cc(Cl)ccc32)cc1 (stereo unspecified),-2.1
22,O=c1c(Oc2ccc(Cl)cc2Cl)c(C(F)(F)F)oc2cc(O)ccc12,3.3
23,Cc1ccc(/C=N/NC(=O)CSc2nc3ccccc3[nH]2)o1,-9.4
24,CCOC(=O)c1c(NC(=O)CSc2nc3ccccc3s2)sc2c1CCC2,-17.9

row,Structure (SMILES),displacement [%]
1,O=C1N=C(N2CCOCC2)S/C1=C\c1cccc(O)c1,13.1
2,Cc1ccc(-n2nc3cc(C)c(NC(=O)C(C)C)cc3n2)cc1,-4.7
3,CC(=O)CC(=O)NCc1ccc(F)cc1,-4.8
4,COc1cccc(C(=O)NN=C2CCCC2)c1,-7.7
5,Cc1c(NC(=O)CCN2C(=O)/C(=C\c3cccs3)SC2=S)c(=O)n(-c2ccccc2)n1C,10.1
6,Cc1cc(C)cc(OCCCCNC(C)(C)C)c1,5.2
7,CCCCN1C(=O)c2ccccc2S1(=O)=O,0.6
8,COc1cccc(NC(=O)COc2ccccc2C)c1,-12.6
9,COc1ccc(CCNC(=O)c2ccc(OC)c(OC)c2)cc1,-2.8
10,CCOc1ccc(N(CC(=O)NC)S(C)(=O)=O)cc1,10.7
11,COc1ccc(C(=O)Nc2ccccc2)cc1S(N)(=O)=O,-8.1
12,CCSC1=C(C#N)C(CC(C)C)C2=C(CCCC2=O)N1 (stereo unspecified),-6.6
13,O=C1NC(=O)N(c2ccc(Cl)cc2)C(=O)/C1=C/c1cccc(C(F)(F)F)c1,-13.9
14,Cc1cc(C)c(C(=O)/C=C/c2cccc([N+](=O)[O-])c2)cc1C,2.4
15,Cc1ccc(-c2cc(C(=O)N/N=C/c3ccc([N+](=O)[O-])cc3)[nH]n2)cc1,-9.4
16,CCCCNCCCCCOc1c(C)cc(C)cc1C,-4.2
17,Cn1c(=O)n(CCOc2ccc([N+](=O)[O-])cc2)c2ccccc21,14.7
18,O=C1c2cccc3cccc(c23)C(=O)N1c1nc(-c2ccccc2)cs1,4.5
19,COc1ccc(NC(=O)C(=O)N/N=C/c2ccc3c(c2)OCO3)cc1,12.1
20,Cc1c(N2C(=O)/C(=C\c3cccnc3)SC2=S)c(=O)n(-c2ccccc2)n1C,-0.4
21,Cc1ccccc1C(=O)NNC(=O)c1ccccn1,-9.6
22,Cc1ccc(S(=O)(=O)N(C)CCCC(=O)Nc2ccccc2C)cc1,17.9
23,O=C1NC(=O)N(c2ccccc2)C(=O)/C1=C\c1ccc(-c2cccc(C(=O)O)c2)o1,15.4
